In paper PMC9911399, “Two distinct binding modes provide the RNA-binding protein RbFox with extraordinary sequence specificity”:
Where a chain is given by its changes, count along the chain named. Some of the results follow.

B1: UUCAUAU (DNA:RNA)
RNA: GGGAGACCGGAAUUCAGAUUGUCCUUCAUAUUUAAAUCCCGUCGUAGCCACCA
DNA 1: CAATCTGAATTCCGGTCTCCC
DNA 2: TGGTGGCTACGACGGGATT
B2: ACAAGGU (DNA:RNA)
RNA: B1 RNA with U25A, U26C, C27A, U29G, A30G
DNA 1: CAATCTGAATTCCGGTCTCCC
DNA 2: TGGTGGCTACGACGGGATT
B3: CUCCAUU (DNA:RNA)
RNA: B1 RNA with U25C, A28C, U29A, A30U
DNA 1: CAATCTGAATTCCGGTCTCCC
DNA 2: TGGTGGCTACGACGGGATT
B4: CACAAGC (DNA:RNA)
RNA: B1 RNA with U25C, U26A, U29A, A30G, U31C
DNA 1: CAATCTGAATTCCGGTCTCCC
DNA 2: TGGTGGCTACGACGGGATT
B5: ACUUGGA (DNA:RNA)
RNA: GGGAGACCGGAAUUCAGAUUGUCCACUUGGAUUAAAUCCCGUCGUAGCCACCA
DNA 1: CAATCTGAATTCCGGTCTCCC
DNA 2: TGGTGGCTACGACGGGATT
B6: AACGAAU (DNA:RNA)
RNA: B1 RNA with U25A, U26A, A28G, U29A
DNA 1: CAATCTGAATTCCGGTCTCCC
DNA 2: TGGTGGCTACGACGGGATT
B7: GCAUCGU (DNA:RNA)
RNA: B5 RNA with A25G, U27A, G29C, A31U
DNA 1: CAATCTGAATTCCGGTCTCCC
DNA 2: TGGTGGCTACGACGGGATT
B8: GGGACGA (DNA:RNA)
RNA: B5 RNA with A25G, C26G, U27G, U28A, G29C
DNA 1: CAATCTGAATTCCGGTCTCCC
DNA 2: TGGTGGCTACGACGGGATT
B9: GCUCUGG (DNA:RNA)
RNA: B5 RNA with A25G, U28C, G29U, A31G
DNA 1: CAATCTGAATTCCGGTCTCCC
DNA 2: TGGTGGCTACGACGGGATT
B10: CAUACGC (DNA:RNA)
RNA: B5 RNA with A25C, C26A, U28A, G29C, A31C
DNA 1: CAATCTGAATTCCGGTCTCCC
DNA 2: TGGTGGCTACGACGGGATT
B11: GAGAUCU (DNA:RNA)
RNA: B1 RNA with U25G, U26A, C27G, A30C
DNA 1: CAATCTGAATTCCGGTCTCCC
DNA 2: TGGTGGCTACGACGGGATT
B12: AGCGCGG (DNA:RNA)
RNA: B5 RNA with C26G, U27C, U28G, G29C, A31G
DNA 1: CAATCTGAATTCCGGTCTCCC
DNA 2: TGGTGGCTACGACGGGATT
B13: ACUUCAG (DNA:RNA)
RNA: B5 RNA with G29C, G30A, A31G
DNA 1: CAATCTGAATTCCGGTCTCCC
DNA 2: TGGTGGCTACGACGGGATT
B14: AAUUAAG (DNA:RNA)
RNA: B5 RNA with C26A, G29A, G30A, A31G
DNA 1: CAATCTGAATTCCGGTCTCCC
DNA 2: TGGTGGCTACGACGGGATT
B15: AUCAUGC (DNA:RNA)
RNA: B1 RNA with U25A, A30G, U31C
DNA 1: CAATCTGAATTCCGGTCTCCC
DNA 2: TGGTGGCTACGACGGGATT
B16: CUUAUUC (DNA:RNA)
RNA: B1 RNA with U25C, C27U, A30U, U31C
DNA 1: CAATCTGAATTCCGGTCTCCC
DNA 2: TGGTGGCTACGACGGGATT
B17: UGCAAUG (DNA:RNA)
RNA: B1 RNA with U26G, U29A, A30U, U31G
DNA 1: CAATCTGAATTCCGGTCTCCC
DNA 2: TGGTGGCTACGACGGGATT
B18: CCGCGAC (DNA:RNA)
RNA: B5 RNA with A25C, U27G, U28C, G30A, A31C
DNA 1: CAATCTGAATTCCGGTCTCCC
DNA 2: TGGTGGCTACGACGGGATT
B19: GGUACUA (DNA:RNA)
RNA: B5 RNA with A25G, C26G, U28A, G29C, G30U
DNA 1: CAATCTGAATTCCGGTCTCCC
DNA 2: TGGTGGCTACGACGGGATT
B20: UCGUCUC (DNA:RNA)
RNA: B5 RNA with A25U, U27G, G29C, G30U, A31C
DNA 1: CAATCTGAATTCCGGTCTCCC
DNA 2: TGGTGGCTACGACGGGATT
B21: CGCACGG (DNA:RNA)
RNA: B1 RNA with U25C, U26G, U29C, A30G, U31G
DNA 1: CAATCTGAATTCCGGTCTCCC
DNA 2: TGGTGGCTACGACGGGATT
B22: UAAGGAA (DNA:RNA)
RNA: B5 RNA with A25U, C26A, U27A, U28G, G30A
DNA 1: CAATCTGAATTCCGGTCTCCC
DNA 2: TGGTGGCTACGACGGGATT
B23: GCAGUCU (DNA:RNA)
RNA: B1 RNA with U25G, U26C, C27A, A28G, A30C
DNA 1: CAATCTGAATTCCGGTCTCCC
DNA 2: TGGTGGCTACGACGGGATT
B24: GUCAAUA (DNA:RNA)
RNA: B1 RNA with U25G, U29A, A30U, U31A
DNA 1: CAATCTGAATTCCGGTCTCCC
DNA 2: TGGTGGCTACGACGGGATT
B25: GUACGCC (DNA:RNA)
RNA: B5 RNA with A25G, C26U, U27A, U28C, G30C, A31C
DNA 1: CAATCTGAATTCCGGTCTCCC
DNA 2: TGGTGGCTACGACGGGATT
B26: AACUAUU (DNA:RNA)
RNA: B5 RNA with C26A, U27C, G29A, G30U, A31U
DNA 1: CAATCTGAATTCCGGTCTCCC
DNA 2: TGGTGGCTACGACGGGATT
B27: AGUCUGU (DNA:RNA)
RNA: B5 RNA with C26G, U28C, G29U, A31U
DNA 1: CAATCTGAATTCCGGTCTCCC
DNA 2: TGGTGGCTACGACGGGATT
B28: GUGGCAA (DNA:RNA)
RNA: B1 RNA with U25G, C27G, A28G, U29C, U31A
DNA 1: CAATCTGAATTCCGGTCTCCC
DNA 2: TGGTGGCTACGACGGGATT
B29: GAUUGUA (DNA:RNA)
RNA: B5 RNA with A25G, C26A, G30U
DNA 1: CAATCTGAATTCCGGTCTCCC
DNA 2: TGGTGGCTACGACGGGATT
B30: GUCGCCA (DNA:RNA)
RNA: B1 RNA with U25G, A28G, U29C, A30C, U31A
DNA 1: CAATCTGAATTCCGGTCTCCC
DNA 2: TGGTGGCTACGACGGGATT
B31: UCUUUUU (DNA:RNA)
RNA: B5 RNA with A25U, G29U, G30U, A31U
DNA 1: CAATCTGAATTCCGGTCTCCC
DNA 2: TGGTGGCTACGACGGGATT

target: T1, RBFOX1 RRM (Homo sapiens, UniProt Q9NWB1 109-208); assay: EMSA; HiTS-Eq, 1 nM pool, 10 min; buffer printed only for the single-RNA assays: 10 mM Tris pH 7.5, 150 mM NaCl, 3.4 mM EDTA, 0.001% NP-40, 30 C; conditions: tags: His6 N-terminal (pET28a); label: 5' 32P
T1 sequence: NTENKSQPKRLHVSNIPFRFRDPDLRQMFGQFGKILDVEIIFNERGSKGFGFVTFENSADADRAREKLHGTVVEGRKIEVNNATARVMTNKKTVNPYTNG
How it was run: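 Purified RbFox RRM, wild type or mutant, was incubated for 10 min in 50 µL with 1 nM of a 5′-radiolabelled RNA pool carrying 7 randomized nucleotides, whose flanks were annealed to DNA oligonucleotides, over a series of increasing protein concentrations. Unbound RNA was resolved on 8% native PAGE, cut out, reverse-transcribed, barcoded by PCR and sequenced on an Illumina HiSeq 2500. Relative association constants were derived from changes in read counts for each RNA species versus the control reaction and normalised to the cognate motif.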

Binder	binding signal
B1	0.00109 KA relative to UGCAUGU
B2	0.00642 KA relative to UGCAUGU
B3	0.00386 KA relative to UGCAUGU
B4	0.00287 KA relative to UGCAUGU
B5	0.00141 KA relative to UGCAUGU
B6	0.00313 KA relative to UGCAUGU
B7	0.0157 KA relative to UGCAUGU
B8	0.0296 KA relative to UGCAUGU
B9	0.0209 KA relative to UGCAUGU
B10	0.000478 KA relative to UGCAUGU
B11	0.0119 KA relative to UGCAUGU
B12	0.0172 KA relative to UGCAUGU
B13	0.00783 KA relative to UGCAUGU
B14	0.00679 KA relative to UGCAUGU
B15	0.00514 KA relative to UGCAUGU
B16	0.00688 KA relative to UGCAUGU

Binder	binding signal
B17	0.025 KA relative to UGCAUGU
B18	0.00431 KA relative to UGCAUGU
B19	0.00593 KA relative to UGCAUGU
B20	0.013 KA relative to UGCAUGU
B21	0.0278 KA relative to UGCAUGU
B22	0.00729 KA relative to UGCAUGU
B23	0.0105 KA relative to UGCAUGU
B24	0.00276 KA relative to UGCAUGU
B25	0.00856 KA relative to UGCAUGU
B26	0.00118 KA relative to UGCAUGU
B27	0.0142 KA relative to UGCAUGU
B28	0.0147 KA relative to UGCAUGU
B29	0.0149 KA relative to UGCAUGU
B30	0.0103 KA relative to UGCAUGU
B31	0.014 KA relative to UGCAUGU
